Experimental data taken from publication PMC6602471.
Some of the results follow. At the low end of the ranking the order means little.

Biological target: T1, ETS1 (UniProt P14921)
T1 sequence: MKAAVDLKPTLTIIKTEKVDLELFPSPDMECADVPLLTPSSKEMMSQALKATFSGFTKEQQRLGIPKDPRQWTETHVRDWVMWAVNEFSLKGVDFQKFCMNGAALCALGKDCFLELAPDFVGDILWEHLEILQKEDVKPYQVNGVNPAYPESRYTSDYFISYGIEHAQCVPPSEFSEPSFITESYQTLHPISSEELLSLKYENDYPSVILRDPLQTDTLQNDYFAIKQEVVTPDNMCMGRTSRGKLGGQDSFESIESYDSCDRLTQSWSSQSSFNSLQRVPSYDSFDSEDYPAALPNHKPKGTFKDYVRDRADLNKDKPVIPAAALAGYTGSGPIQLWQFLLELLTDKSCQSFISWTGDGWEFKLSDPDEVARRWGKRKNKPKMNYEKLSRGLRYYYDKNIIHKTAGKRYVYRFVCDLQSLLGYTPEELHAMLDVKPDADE
Assay: custom PBM
Conditions: custom protein-binding microarray; buffer, salt, pH and temperature not stated; high values mean tight binding; double strand, one strand shown

Q: “GTGTATAGGATCCCATCCAACACACGTGTTAAAATGGTCTTGATTCGCTTGACGCTGCTG” was tested. Which binding signal (log fluorescence intensity) did it give?
A: 8.35

Q: Which binding signal (log fluorescence intensity) does the source give for “CTGGGACTTGACCCATCTCTGCCACGTGGGTCGTTTGTCTTGATTCGCTTGACGCTGCTG” here?
A: 8.15

Q: For “GTGTATAGGATGCCATCCAACACACGTGTTAAAATGGTCTTGATTCGCTTGACGCTGCTG”, which binding signal (log fluorescence intensity) is on record?
A: 8.17

Q: For “TAAAGGTAAGACGGTTGTGGTAGTTCCGGGTATTAAGTCTTGATTCGCTTGACGCTGCTG”, which binding signal (log fluorescence intensity) is on record?
A: 8.54

Q: Which binding signal (log fluorescence intensity) does the source give for “GATTAATTTCTGCCCTTCTTCGCACGTGCCATAACAGTCTTGATTCGCTTGACGCTGCTG” here?
A: 8.17

Q: How did the binding signal (log fluorescence intensity) turn out when “CTGGGACTTGACCCAACTCTGCCACGTGGGTCGGTTGTCTTGATTCGCTTGACGCTGCTG” was run?
A: 8.17

Q: Which binding signal (log fluorescence intensity) does the source give for “GGAAAAAGGACCAGGGTAACACCGGAAGTGGGCTTAGTCTTGATTCGCTTGACGCTGCTG” here?
A: 12.1

Q: With “GTGTATAGGATCCCATACAACACACGTGTTAAAATGGTCTTGATTCGCTTGACGCTGCTG” as the sequence, how does the binding signal (log fluorescence intensity) read?
A: 8.21

Q: How did the binding signal (log fluorescence intensity) turn out when “GAAAGGGAAGACGGTTGTGGTAGTTCCGGGTATTAAGTCTTGATTCGCTTGACGCTGCTG” was run?
A: 8.75

Q: “CACAATTTTTACAGTAATTTAGCACGCGTAACTCCTGTCTTGATTCGCTTGACGCTGCTG” was tested. Which binding signal (log fluorescence intensity) did it give?
A: 8.22

Q: Which binding signal (log fluorescence intensity) does the source give for “GGAAAAAGGCCCAGGGTAACACGGGAAGTGGGCTTAGTCTTGATTCGCTTGACGCTGCTG” here?
A: 8.49

Q: With “GATTAATTTCTACCCTTATTCGCACGTGCCATAACAGTCTTGATTCGCTTGACGCTGCTG” as the sequence, how does the binding signal (log fluorescence intensity) read?
A: 8.02

Q: Which binding signal (log fluorescence intensity) does the source give for “GGAAAAAGGCCCAGGGTAACACCGGAAGTGGGCGTAGTCTTGATTCGCTTGACGCTGCTG” here?
A: 11.9

Q: How did the binding signal (log fluorescence intensity) turn out when “GCTGCGGCGGTGCATACCCCACCGGATGTGACCCCGGTCTTGATTCGCTTGACGCTGCTG” was run?
A: 10.9

Q: With “GCTGCTGCGGTGCATGCCCCACCGGATGTGACCCCGGTCTTGATTCGCTTGACGCTGCTG” as the sequence, how does the binding signal (log fluorescence intensity) read?
A: 10.3

Q: Which binding signal (log fluorescence intensity) does the source give for “GCGGCTGCGGTGCATACCCCACCGGATGTGACCCCGGTCTTGATTCGCTTGACGCTGCTG” here?
A: 10

Q: For “CACAATTTTTACAGTAATGTACCACGCGTAACTCCTGTCTTGATTCGCTTGACGCTGCTG”, which binding signal (log fluorescence intensity) is on record?
A: 8.17

Q: Which binding signal (log fluorescence intensity) does the source give for “CAGCATAGGTCTTCTTCCCTGAAGCAATTGATAACCGTCTTGATTCGCTTGACGCTGCTG” here?
A: 8.19

Q: For “GGAAAAAGGCCCAGGGTAGCACCGGAAGTGGGCTTAGTCTTGATTCGCTTGACGCTGCTG”, which binding signal (log fluorescence intensity) is on record?
A: 11.5

Q: With “CTGGGACTTGACCCAACTCTGCCACGTGAGTCGTTTGTCTTGATTCGCTTGACGCTGCTG” as the sequence, how does the binding signal (log fluorescence intensity) read?
A: 8.12

Q: For “CGGAAGTGTCGCAAACGTCGGATATCCGGTTCTTCTGTCTTGATTCGCTTGACGCTGCTG”, which binding signal (log fluorescence intensity) is on record?
A: 12

Q: With “TCCGGCTACCAGCTCCCCCCACTTCAGGCCTTGTAGGTCTTGATTCGCTTGACGCTGCTG” as the sequence, how does the binding signal (log fluorescence intensity) read?
A: 8.17

Q: With “CACAATTTTTACAATAATGTAGCACGCGTAACTCCTGTCTTGATTCGCTTGACGCTGCTG” as the sequence, how does the binding signal (log fluorescence intensity) read?
A: 8.23

Q: For “GATTAATTTCTGCCCTTATTCGCACGTGCCATACCAGTCTTGATTCGCTTGACGCTGCTG”, which binding signal (log fluorescence intensity) is on record?
A: 8.33

Q: With “CACAATTTTTACAGTAATGTAGTACGCGTAACTCCTGTCTTGATTCGCTTGACGCTGCTG” as the sequence, how does the binding signal (log fluorescence intensity) read?
A: 8.07

Q: Which binding signal (log fluorescence intensity) does the source give for “CGGAAGCGTCGTAAACGTCGGATATCCGGTTCTTCTGTCTTGATTCGCTTGACGCTGCTG” here?
A: 11.8

Q: For “GCCGCTGCGGTGCATACCCCACCGGATGTGACCCCGGTCTTGATTCGCTTGACGCTGCTG”, which binding signal (log fluorescence intensity) is on record?
A: 10.3

Q: How did the binding signal (log fluorescence intensity) turn out when “TAAAGGGAAGACGGTTGTGGTAGTTCCGAGTATTAAGTCTTGATTCGCTTGACGCTGCTG” was run?
A: 8.29

Q: “CAGCATAGGACTTCTTCACTGAAGCAATTGATAACCGTCTTGATTCGCTTGACGCTGCTG” was tested. Which binding signal (log fluorescence intensity) did it give?
A: 8.32

Q: How did the binding signal (log fluorescence intensity) turn out when “GGAAAAAGGCCCAGGGTAACACCGGAAGTGGTCTTAGTCTTGATTCGCTTGACGCTGCTG” was run?
A: 11.7

Q: For “TAAAGGGAAGACGGTTGTGGTAGTTCCGGGGATTAAGTCTTGATTCGCTTGACGCTGCTG”, which binding signal (log fluorescence intensity) is on record?
A: 8.48

Q: “CAGCATTGGACTTCTTCCCTGAAGCAATTGATAACCGTCTTGATTCGCTTGACGCTGCTG” was tested. Which binding signal (log fluorescence intensity) did it give?
A: 8.33

Q: How did the binding signal (log fluorescence intensity) turn out when “GCTGCTGCGGTGCATACCCCACCGGATGTGACACCGGTCTTGATTCGCTTGACGCTGCTG” was run?
A: 10.3

Q: Which binding signal (log fluorescence intensity) does the source give for “GGAAAAAGGCCCAGGGTAACACCGGAAGTGGGCTAAGTCTTGATTCGCTTGACGCTGCTG” here?
A: 12.1

Q: Which binding signal (log fluorescence intensity) does the source give for “CGGAAGTGTCGTAAACGTCGGGTATCCGGTTCTTCTGTCTTGATTCGCTTGACGCTGCTG” here?
A: 10.5

Q: For “CACCATAGGACTTCTTCCCTGAAGCAATTGATAACCGTCTTGATTCGCTTGACGCTGCTG”, which binding signal (log fluorescence intensity) is on record?
A: 8.16

Q: Which binding signal (log fluorescence intensity) does the source give for “CTGGGACTTGACCCAAGTCTGCCACGTGGGTCGTTTGTCTTGATTCGCTTGACGCTGCTG” here?
A: 8.16

Q: Which binding signal (log fluorescence intensity) does the source give for “GAAAAAAGGCCCAGGGTAACACCGGAAGTGGGCTTAGTCTTGATTCGCTTGACGCTGCTG” here?
A: 12.1

Q: How did the binding signal (log fluorescence intensity) turn out when “CTGGGACTTGACCCAACTCTGCCCCGTGGGTCGTTTGTCTTGATTCGCTTGACGCTGCTG” was run?
A: 8.29

Q: With “GTGTATATGATCCCATCCAACACACGTGTTAAAATGGTCTTGATTCGCTTGACGCTGCTG” as the sequence, how does the binding signal (log fluorescence intensity) read?
A: 8.16

Q: For “GATTAATTTCTGCCCTTATTGGCACGTGCCATAACAGTCTTGATTCGCTTGACGCTGCTG”, which binding signal (log fluorescence intensity) is on record?
A: 8.27

Q: For “TGTCGGGTAAGGGAATGTAGATCACGTGCATGAAAAGTCTTGATTCGCTTGACGCTGCTG”, which binding signal (log fluorescence intensity) is on record?
A: 8.11

Q: Which binding signal (log fluorescence intensity) does the source give for “TACTGACTTATATATTCGAATGCACATGAATAGACCGTCTTGATTCGCTTGACGCTGCTG” here?
A: 8.06

Q: For “TGTCGGGTAAGGGAATGTAGATCACGGGAATGAAAAGTCTTGATTCGCTTGACGCTGCTG”, which binding signal (log fluorescence intensity) is on record?
A: 8.26

Q: For “GTGTATAGGATCCCATCCAAAACACGTGTTAAAATGGTCTTGATTCGCTTGACGCTGCTG”, which binding signal (log fluorescence intensity) is on record?
A: 8.22

Q: Which binding signal (log fluorescence intensity) does the source give for “CACAATTTTTACAGTAATGTAGCACGCGTAACTTCTGTCTTGATTCGCTTGACGCTGCTG” here?
A: 8.2

Q: Which binding signal (log fluorescence intensity) does the source give for “CTGGGACTTGACCCAACTCTGCCACGTGGGTAGTTTGTCTTGATTCGCTTGACGCTGCTG” here?
A: 8.1

Q: How did the binding signal (log fluorescence intensity) turn out when “TCCGGCTACCAGCTCCACCCACTTCAGTCCTTGTAGGTCTTGATTCGCTTGACGCTGCTG” was run?
A: 8.04

Q: With “CTGGGACTTGACCCAACTCTGCCATGTGGGTCGTTTGTCTTGATTCGCTTGACGCTGCTG” as the sequence, how does the binding signal (log fluorescence intensity) read?
A: 8.2

Q: With “CGCAAGTGTCGTAAACGTCGGATATCCGGTTCTTCTGTCTTGATTCGCTTGACGCTGCTG” as the sequence, how does the binding signal (log fluorescence intensity) read?
A: 11.8

Q: For “TGTCGGGTAAGGGAATGTAGATCACGTGAATGATAAGTCTTGATTCGCTTGACGCTGCTG”, which binding signal (log fluorescence intensity) is on record?
A: 8.28

Q: How did the binding signal (log fluorescence intensity) turn out when “CACAATTTTTACAGTAATGTGGCACGCGTAACTCCTGTCTTGATTCGCTTGACGCTGCTG” was run?
A: 8.25
